# Measured values as given in the supplement of paper PMC10037445.
# The full ranking holds about 2,900 compounds; the median of “IRF Lucia reporter activity, fold change vs agonist alone” is about 0.9, and the highest 2% start at about 2.8. Some of the results follow.
# Tests used:
# RAW-Dual [1] = test: IRF Lucia reporter activity, fold change vs agonist alone; higher = enhanced IRF activity; settings: cytotoxicity flag (confluency mask): not cytotoxic, agonist: MPLA (TLR4) […]
# How it was run: (§1)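 Reporter activity is given as fold change relative to agonist-alone wells. To measure it, 50 nL of library stock was pin-tooled onto RAW-Dual macrophages (50,000 cells/well, DMEM, 384-well plates), a PRR agonist followed 1 h later, and cells stayed at 37 °C, 5% CO2. Twenty hours on, supernatant was assayed for IRF (QuantiLuc luminescence) and NF-κB (QuantiBlue, 620 nm absorbance), and wells under 70% of agonist-control IncuCyte confluency in both mask sets were marked cytotoxic.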
# RAW-Dual [2] = test: IRF Lucia reporter activity, fold change vs agonist alone; cytotoxicity flag (confluency mask): not cytotoxic; higher = enhanced IRF activity
# How it was run: as §1
# [3] = library stock concentration (final ~1000-fold dilution): 10 mM
# [4] = agonist: 3'3'-cGAMP (STING) 10 ug/mL
# [5] = library stock concentration (final ~1000-fold dilution): 2 mM
compound,measurement,setting,value
COC(=O)C1=COC(OC2OC(CO)C(O)C(O)C2O)C2C1CC(O)C2C (stereo not drawn),IRF Lucia reporter activity,RAW-Dual [1]; [3],1.12
COC(=O)C1=COC(OC2OC(CO)C(O)C(O)C2O)C2C1CC(O)C2C (stereo not drawn) (library stock concentration (final ~1000-fold dilution): 10 mM),IRF Lucia reporter activity,RAW-Dual [2]; [4],1.08
same,IRF Lucia reporter activity,RAW-Dual [2]; agonist: LPS (TLR4) 0.1 ug/mL,1.3
Cl.OC(CCN1CCCC1)(c1ccccc1)C1CCCCC1 (stereo not drawn),IRF Lucia reporter activity,RAW-Dual [1]; [3],1.22
Cl.OC(CCN1CCCC1)(c1ccccc1)C1CCCCC1 (stereo not drawn) (library stock concentration (final ~1000-fold dilution): 10 mM),IRF Lucia reporter activity,RAW-Dual [2]; [4],0.757
same,IRF Lucia reporter activity,RAW-Dual [2]; agonist: LPS (TLR4) 0.1 ug/mL,1.51
O=C1Nc2ccccc2C1=O,IRF Lucia reporter activity,RAW-Dual [1]; [3],1.01
O=C1Nc2ccccc2C1=O (library stock concentration (final ~1000-fold dilution): 10 mM),IRF Lucia reporter activity,RAW-Dual [2]; [4],0.986
same,IRF Lucia reporter activity,RAW-Dual [2]; agonist: LPS (TLR4) 0.1 ug/mL,1.28
CN1C(C(=O)Nc2ccccn2)=C(O)c2sc(Cl)cc2S1(=O)=O (library stock concentration (final ~1000-fold dilution): 2 mM),IRF Lucia reporter activity,RAW-Dual [2]; [4],0.996
same,IRF Lucia reporter activity,RAW-Dual [2]; agonist: LPS (TLR4) 0.1 ug/mL,1
CN1C(C(=O)Nc2ccccn2)=C(O)c2sc(Cl)cc2S1(=O)=O,IRF Lucia reporter activity,RAW-Dual [1]; [5],1.27
N#Cc1ncccn1 (library stock concentration (final ~1000-fold dilution): 2 mM),IRF Lucia reporter activity,RAW-Dual [2]; [4],0.907
same,IRF Lucia reporter activity,RAW-Dual [2]; agonist: LPS (TLR4) 0.1 ug/mL,0.936
N#Cc1ncccn1,IRF Lucia reporter activity,RAW-Dual [1]; [5],1.07
C=C1CCC2C(C)(COC(=O)CCC(=O)O)C(OC(=O)CCC(=O)O)CCC2(C)C1C=CC1=CCOC1=O (stereo not drawn) (library stock concentration (final ~1000-fold dilution): 10 mM),IRF Lucia reporter activity,RAW-Dual [2]; [4],1.07
same,IRF Lucia reporter activity,RAW-Dual [2]; agonist: LPS (TLR4) 0.1 ug/mL,1.12
C=C1CCC2C(C)(COC(=O)CCC(=O)O)C(OC(=O)CCC(=O)O)CCC2(C)C1C=CC1=CCOC1=O (stereo not drawn),IRF Lucia reporter activity,RAW-Dual [1]; [3],1.07
CCOC(=O)C1=Cc2ccc(C(F)(F)C(F)(F)F)cc2N=C(N)C1 (library stock concentration (final ~1000-fold dilution): .1 mM),IRF Lucia reporter activity,RAW-Dual [2]; [4],0.839
same,IRF Lucia reporter activity,RAW-Dual [2]; agonist: LPS (TLR4) 0.1 ug/mL,0.547
Cc1ccc(CNc2ncnc3ccc(-c4ccc(CO)o4)cc23)o1 (library stock concentration (final ~1000-fold dilution): 10 mM),IRF Lucia reporter activity,RAW-Dual [2]; [4],0.504
same,IRF Lucia reporter activity,RAW-Dual [2]; agonist: LPS (TLR4) 0.1 ug/mL,0.761
Cc1ccc(CNc2ncnc3ccc(-c4ccc(CO)o4)cc23)o1,IRF Lucia reporter activity,RAW-Dual [1]; [3],0.892
COc1cc(OC)c(C(=O)CCCN2CCCC2)c(OC)c1.Cl (library stock concentration (final ~1000-fold dilution): 10 mM),IRF Lucia reporter activity,RAW-Dual [2]; [4],1.01
same,IRF Lucia reporter activity,RAW-Dual [2]; agonist: LPS (TLR4) 0.1 ug/mL,0.894
COc1cc(OC)c(C(=O)CCCN2CCCC2)c(OC)c1.Cl,IRF Lucia reporter activity,RAW-Dual [1]; [3],1.01
O=C(Nc1ccc([N+](=O)[O-])cc1Cl)c1cc(Cl)ccc1O (library stock concentration (final ~1000-fold dilution): 10 mM),IRF Lucia reporter activity,RAW-Dual [2]; [4],0.354
same,IRF Lucia reporter activity,RAW-Dual [2]; agonist: LPS (TLR4) 0.1 ug/mL,2.53
O=C(Nc1ccc([N+](=O)[O-])cc1Cl)c1cc(Cl)ccc1O,IRF Lucia reporter activity,RAW-Dual [1]; [3],0.899
O=C(Nc1cccnc1)N1CCC(Cc2cccc(Oc3ccc(C(F)(F)F)cn3)c2)CC1,IRF Lucia reporter activity,RAW-Dual [1]; [3],1.09
O=C(Nc1cccnc1)N1CCC(Cc2cccc(Oc3ccc(C(F)(F)F)cn3)c2)CC1 (library stock concentration (final ~1000-fold dilution): 10 mM),IRF Lucia reporter activity,RAW-Dual [2]; [4],0.925
same,IRF Lucia reporter activity,RAW-Dual [2]; agonist: LPS (TLR4) 0.1 ug/mL,1.02
Cc1cc(C)nc(NS(=O)(=O)c2ccc(NC(=S)NC(=O)COc3ccc(Br)cc3Cl)cc2)n1 (library stock concentration (final ~1000-fold dilution): 10 mM),IRF Lucia reporter activity,RAW-Dual [2]; [4],1.03
same,IRF Lucia reporter activity,RAW-Dual [2]; agonist: LPS (TLR4) 0.1 ug/mL,1.12
Cc1cc(C)nc(NS(=O)(=O)c2ccc(NC(=S)NC(=O)COc3ccc(Br)cc3Cl)cc2)n1,IRF Lucia reporter activity,RAW-Dual [1]; [3],1.29
CCCCNc1ccc(C(=O)OCCN(C)C)cc1.Cl (library stock concentration (final ~1000-fold dilution): 10 mM),IRF Lucia reporter activity,RAW-Dual [2]; [4],0.886
same,IRF Lucia reporter activity,RAW-Dual [2]; agonist: LPS (TLR4) 0.1 ug/mL,0.983
CCCCNc1ccc(C(=O)OCCN(C)C)cc1.Cl,IRF Lucia reporter activity,RAW-Dual [1]; [3],1.07
Cc1cccc(-c2nn3c(c2-c2ccnc4ccc(C(N)=O)cc24)CCC3)n1,IRF Lucia reporter activity,RAW-Dual [1]; [3],0.787
Cc1cccc(-c2nn3c(c2-c2ccnc4ccc(C(N)=O)cc24)CCC3)n1 (library stock concentration (final ~1000-fold dilution): 10 mM),IRF Lucia reporter activity,RAW-Dual [2]; [4],0.841
same,IRF Lucia reporter activity,RAW-Dual [2]; agonist: LPS (TLR4) 0.1 ug/mL,0.702
CN1CCN(c2ccc3nc(-c4c(N)c5c(F)cccc5[nH]c4=O)[nH]c3c2)CC1 (library stock concentration (final ~1000-fold dilution): 10 mM),IRF Lucia reporter activity,RAW-Dual [2]; [4],0.0724
same,IRF Lucia reporter activity,RAW-Dual [2]; agonist: LPS (TLR4) 0.1 ug/mL,0.202
CN1CCN(c2ccc3nc(-c4c(N)c5c(F)cccc5[nH]c4=O)[nH]c3c2)CC1,IRF Lucia reporter activity,RAW-Dual [1]; [3],0.345
O=c1[nH]cnc2ccccc12 (library stock concentration (final ~1000-fold dilution): 10 mM),IRF Lucia reporter activity,RAW-Dual [2]; [4],1.01
same,IRF Lucia reporter activity,RAW-Dual [2]; agonist: LPS (TLR4) 0.1 ug/mL,1.12
O=C(Oc1coc(CSc2ncccn2)cc1=O)c1ccc([N+](=O)[O-])cc1 (library stock concentration (final ~1000-fold dilution): 10 mM),IRF Lucia reporter activity,RAW-Dual [2]; [4],0.961
same,IRF Lucia reporter activity,RAW-Dual [2]; agonist: LPS (TLR4) 0.1 ug/mL,0.56
